# Experimental data taken from PubChem BioAssay AID1347416 (National Center for Advancing Translational Sciences (NCATS), 2020).
# Out of some 4,100 compounds screened, about 1,600 (39%) were called active. This list was built around the results that the source calls inconclusive (neither active nor inactive); the mix of calls is not that of the screen. Calls come from the whole dose curve; as a rule, active = well fitted inhibition curve with a large enough effect; inconclusive = small, poorly fitted or top-dose-only effect; inactive = no such curve, though single readings can be large or run the other way. Potencies beside an inconclusive call are fits to weak or partial responses and may not hold up.
# Assay: qHTS Validation assay for Inhibitors of Plasmodium falciparum Dd2 growth in vitro; note: nearly all actives have a fitted effect of over 70% in size
# Details: P. falciparum Dd2 in RBCs, SYBR Green growth, 72 h; series mostly up to 28.7 µM
# Procedure, shortened: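 P. falciparum Dd2-infected red blood cells (2.5% hematocrit, 0.3% parasitemia) grown 72 h at 37 °C under 5% O2 with compounds in a titration, 29 uM to 0.5 nM final. Growth read as SYBR Green-1 fluorescence after ~16 h lysis; artesunate 300 nM as positive control.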
# Potency is the fitted concentration of half-maximal effect; tags give direction and shape of the fitted curve.
row,SMILES,Potency
1,Cc1cccc(OCC(=O)NCC2(N3CCN(C)CC3)CCCCC2)c1C,"inconclusive: 6.68 µM [inhibitor, partial curve]"
2,CN(C(=O)c1ccc(NC(=O)Cc2cccc(NC(=O)C3CCCN(C(=O)CCc4ccccc4)C3)c2)cc1)C1CCCC1 (stereo not drawn),"inconclusive: 8.41 µM [inhibitor, partial curve, poor fit]"
3,Cc1ccc(Sc2ccc(NC(=O)CCl)cc2)cc1C,active: 9.44 µM
4,CCNC(=O)NC[C@@H]1C=C(C)[C@H](Cc2nnc(-c3cncn3C)o2)C[C@H]1C(C)C,"inconclusive: 34.4 µM [inhibitor, single point]"
5,CCOc1ccc(C2Cn3nnc(-c4nc(-c5cccc(OCC)c5)no4)c3CO2)cc1 (stereo not drawn),"inconclusive: 13.3 µM [inhibitor, single point]"
6,COc1ccccc1CN1COc2ccc3c(oc(=O)c4ccccc43)c2C1,active: 2.11 µM
7,CCOC(=O)c1cccc(NC(=O)Cn2ncc3c4ccccc4n(Cc4ccccc4)c3c2=O)c1,inactive
8,N#Cc1ccc(CN2CC[C@@H]3C(=O)NCCCCCCN(Cc4ccncc4)[C@@H]3C2)cc1,active: 10.6 µM
9,COc1ccc(CN2CCC3(C2)C(=NC2CCCCC2)NC(=O)N3c2cccnc2)cc1 (stereo not drawn),"inconclusive: 2.11 µM [inhibitor, partial curve]"
10,COc1ccccc1NS(=O)(=O)c1cc(NC(=O)c2cccc(S(=O)(=O)N(C)C)c2)ccc1N1CCOCC1,active: 7.5 µM
11,CN(C)c1ccc(CN2CCC3(CC2)COc2ccccc2C(=O)N3)cc1,active: 2.66 µM
12,CC(C)c1nc(-c2ccc(OC3CCN(C(=O)CCc4nc5ccccc5[nH]4)C3)cc2)no1 (stereo not drawn),"inconclusive: 15 µM [inhibitor, partial curve]"
13,Clc1cccc(CN2CCc3c([nH]c4ccccc34)C2)c1Cl,"inconclusive: 21.1 µM [inhibitor, single point]"
14,CC(=O)Nc1nc2ccccc2n1Cc1ccccc1Cl,"inconclusive: 21.1 µM [inhibitor, partial curve, poor fit]"
15,CC(C)(C)N1C(=O)c2ccc(C(=O)Nc3ccc(-c4nc5ccccc5[nH]4)cc3)cc2C1=O,active: 6.68 µM
16,CCOC(=O)C1=C(C)NC2=C(C(=O)CCC2)C1c1cn(Cc2ccc(Cl)cc2Cl)nc1-c1ccccc1 (stereo not drawn),"inconclusive: 5.31 µM [inhibitor, full curve, poor fit]"
17,Cc1cc(C)c(C)c(S(=O)(=O)NCc2ccc(C(=O)N3CCCCC3)cc2)c1C,"inconclusive: 3.76 µM [inhibitor, partial curve]"
18,CCCN1CCC(NCc2cn(C)nc2-c2ccc(Oc3ccccc3)cc2)CC1,"inconclusive: 4.73 µM [inhibitor, partial curve]"
19,Cc1ccc(-c2csc3ncnc(Cl)c23)cc1,"inconclusive: 16.8 µM [inhibitor, single point]"
20,COc1ccc(/C=N/Nc2cc(C)nc3ccccc23)cc1,active: 2.11 µM
21,O=C(CCS(=O)(=O)c1cc(Br)cc2c1N(C(=O)C1CC1)CC2)Nc1ccc(Br)cc1F,active: 3.35 µM
22,CCn1ccc2ccc(CN3CCCC(O)(CN4CCCC4)C3)cc21 (stereo not drawn),active: 7.5 µM

row,SMILES,Potency
1,Oc1ccccc1CNC[C@H]1O[C@H](Cc2cc(CN3CCCCC3)on2)CC[C@@H]1O,"inconclusive: 34.4 µM [inhibitor, single point]"
2,CN1C(=O)C2(CCN(C(=O)c3ccn(C(C)(C)C)c3)CC2)c2ccccc21,inactive
3,COc1cccc(CN2CCC(Oc3ccc(-c4noc(C5CC5)n4)cc3)C2)c1 (stereo not drawn),"inconclusive: 21.1 µM [inhibitor, single point]"
4,O=c1[nH]c(N2CCOCC2)nc2c1CCN(Cc1ccccc1C(F)(F)F)CC2,active: 4.73 µM
5,CC(C)Oc1ccc(C(=O)Nc2ccc3oc(-c4ccncc4)nc3c2)cc1,"inconclusive: 8.41 µM [inhibitor, partial curve]"
6,O=C1NC(=NC2CCCC2)C2(CCCN(CC3CC3)C2)N1c1cc(F)cc(F)c1 (stereo not drawn),"inconclusive: 9.44 µM [inhibitor, partial curve, poor fit]"
7,CCOC(=O)c1c(C=O)c(C)n(Cc2ccc(Cl)cc2)c1C,"inconclusive: 10.6 µM [inhibitor, partial curve, poor fit]"
8,COc1ccccc1-c1nc(C(=O)NC(C)C)n2ccncc12,"inconclusive: 34.4 µM [inhibitor, single point]"
9,OC1CN(Cc2ccc(-c3cnc4c(OCc5ccccc5)nccn34)cc2)C1,"inconclusive: 27.3 µM [inhibitor, partial curve, poor fit]"
10,COc1ccc(C2Cn3nnc(-c4noc(-c5ccc(Cl)cc5OC)n4)c3CO2)cc1 (stereo not drawn),"inconclusive: 18.8 µM [inhibitor, single point]"
11,Cc1cccc(Oc2nc(-c3ccncc3)nc3ccccc23)c1,active: 7.5 µM
12,O=C1CC2(CCN([S+](=O)([O-])c3cccc(C(F)(F)F)c3)CC2)Oc2ccccc2N1c1ccccc1,active: 6.68 µM
13,S=c1nc2ccccc2c2nc(-c3ccccc3Cl)[nH]n12,"inconclusive: 18.8 µM [inhibitor, single point]"
14,COc1ccc2nc(C[C@@H]3C[C@@H](C(C)C)[C@H](CNCc4ccccn4)C=C3C)[nH]c2c1,active: 0.769 µM
15,c1ccc(-c2nc(NCc3ccco3)c3ccccc3n2)nc1,active: 5.96 µM
16,Cc1ccncc1C(=O)N1CCCC(c2nnnn2C)C1 (stereo not drawn),inactive
17,CNC(=O)N1CCC(C2CCN(C(=O)CCCC(=O)O)C2)CC1 (stereo not drawn),inactive
18,COC(=O)C1C2C=CC3(CN(Cc4cccs4)C(=O)C13)O2 (stereo not drawn),inactive
19,COCCN1Cc2ccc(NCC(C)C)nc2C(C)(C(=O)NC2CCC2)C1 (stereo not drawn),"inconclusive: 19.3 µM [inhibitor, single point]"
20,O=C1CC(c2ccccc2)N(Cc2ccncc2)CCCN(S(=O)(=O)c2cccc(F)c2)CCN1 (stereo not drawn),active: 4.73 µM
21,O=C(Nc1ccncc1)Nc1cccc(F)c1,"inconclusive: 21.1 µM [inhibitor, single point]"
